Experimental data reported in paper PMC4336329 (PLoS ONE, 2015).
Screen size: about 310,000 compounds; about 14,000 (4.5%) showed an effect of 50% or more. The effect is printed as a negative number. The list shows a part of the results.

target: human ether-à-go-go-related gene (hERG) potassium channel (human, UniProt Q12809); assay: primary screen, population patch clamp on CHO cells stably expressing hERG
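Note: peak tail current of the secondary pulse compared with the same well before compound.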

Chain of human ether-à-go-go-related gene (hERG) potassium channel (Q12809 whole entry, looked up): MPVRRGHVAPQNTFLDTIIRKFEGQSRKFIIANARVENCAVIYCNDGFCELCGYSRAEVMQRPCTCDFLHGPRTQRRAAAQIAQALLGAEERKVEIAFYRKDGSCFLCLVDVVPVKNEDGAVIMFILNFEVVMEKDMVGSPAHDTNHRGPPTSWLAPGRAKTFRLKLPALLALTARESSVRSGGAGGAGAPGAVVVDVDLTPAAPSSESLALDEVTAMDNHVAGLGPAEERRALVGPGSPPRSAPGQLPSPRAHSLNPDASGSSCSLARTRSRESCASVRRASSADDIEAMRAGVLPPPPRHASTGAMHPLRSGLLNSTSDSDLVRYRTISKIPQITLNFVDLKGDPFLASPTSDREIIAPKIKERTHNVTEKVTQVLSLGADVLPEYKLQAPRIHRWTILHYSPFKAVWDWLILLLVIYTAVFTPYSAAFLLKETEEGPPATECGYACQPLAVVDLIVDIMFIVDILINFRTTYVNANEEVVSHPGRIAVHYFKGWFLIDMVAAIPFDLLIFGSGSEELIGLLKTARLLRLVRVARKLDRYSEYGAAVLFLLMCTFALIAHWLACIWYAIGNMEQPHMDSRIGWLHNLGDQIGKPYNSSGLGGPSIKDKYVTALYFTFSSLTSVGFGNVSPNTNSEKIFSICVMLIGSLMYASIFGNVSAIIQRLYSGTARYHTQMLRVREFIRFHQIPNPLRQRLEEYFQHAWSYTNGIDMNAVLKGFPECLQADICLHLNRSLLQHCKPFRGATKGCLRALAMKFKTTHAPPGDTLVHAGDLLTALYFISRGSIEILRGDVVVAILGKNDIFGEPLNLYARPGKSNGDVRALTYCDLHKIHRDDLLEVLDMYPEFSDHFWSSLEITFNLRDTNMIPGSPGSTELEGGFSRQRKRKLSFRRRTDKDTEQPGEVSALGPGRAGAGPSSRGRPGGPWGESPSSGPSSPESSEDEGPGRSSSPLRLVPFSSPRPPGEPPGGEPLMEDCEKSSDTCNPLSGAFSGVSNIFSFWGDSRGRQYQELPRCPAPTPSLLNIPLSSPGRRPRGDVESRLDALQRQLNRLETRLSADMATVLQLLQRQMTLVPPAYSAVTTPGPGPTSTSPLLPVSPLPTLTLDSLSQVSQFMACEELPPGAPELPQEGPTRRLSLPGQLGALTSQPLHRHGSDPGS

| Structure (SMILES) | hERG current change (%, negative = inhibition) at 10uM |
| --- | --- |
| CN(C)Cc1c(O)ccc2c3c(c(=O)oc12)CCCCC3 | 3.55% |
| Cc1ccc(NNC(=O)c2snnc2C)cc1Cl | -0.415% |
| O=C(Nc1cc2nn(-c3ccccc3)nc2cc1Cl)c1ccco1 | 17.3% |
| Oc1ccccc1N1CCN(c2nnnn2-c2ccccc2)CC1 | -0.8% |
| O=C(COC(=O)c1ccc(S(=O)(=O)NCc2ccco2)cc1)c1ccccc1 | 0.339% |
| Cc1ccc(C(=O)N2CCCc3ccccc32)c(F)c1F | 8.43% |
| O=C(CNC(=S)N(Cc1ccc(F)cc1)C1CCCCC1)NCC1CCCO1 (centres unmarked) | -4.2% |
| CCCn1ncc(CN2CCN(Cc3ccsc3)C(CCO)C2)c1C (centres unmarked) | -5.55% |
| Cc1ccc2ncnc(Nc3cccc([N+](=O)[O-])c3)c2c1 | -44.4% |
| COC(=O)c1cc(COc2ccc3c4c(c(=O)oc3c2)CCC4)c(C)o1 | 4.68% |
| COC(=O)c1ccc(NC(=O)CCS(=O)(=O)c2ccc3c(c2)NC(=O)C(C)S3)cc1 (centres unmarked) | 11.7% |
| CN(C(=O)CC1C(=O)NCCN1Cc1c(F)cccc1Cl)C1CCOCC1 (centres unmarked) | 17.9% |
| COc1ccc(Cn2nnnc2CN2CCc3ccccc32)cc1 | 4.01% |
| Cc1cc(S(=O)(=O)NCCCN2CCOCC2)c(C)cc1Cl | -13.9% |
| O=C(CCCOc1ccccc1)Nc1cc(S(=O)(=O)N2CCOCC2)ccc1N1CCOCC1 | -39.1% |
| COc1ccc(NC(=O)c2ccc(-c3ccc(OC)cc3)s2)cc1 | 11.4% |
| COc1cc(C(C(=O)NCC2CCCO2)N(C(=O)Cn2nnc3ccccc32)c2ccc(OC)c(OC)c2)ccc1O (centres unmarked) | 18.4% |
| Cl.O=C(O)c1ccc(CNCc2ccc(Cl)cc2Cl)cc1 | 18.7% |
| CCn1cc([N+](=O)[O-])c(C(=O)Nc2ccn(Cc3ccccc3)n2)n1 | -3.52% |
| CCC(C)(C)NCC(=O)Nc1ccc(OC(F)(F)F)cc1 | -32.7% |
| CSc1ncccc1C(=O)OCC(=O)Nc1cc(C(F)(F)F)ccc1N1CCOCC1 | -20.2% |
| CC(=O)c1cccc(CN2CCN(C(C)C)C(CCO)C2)c1 (centres unmarked) | 8.34% |

| Structure (SMILES) | hERG current change (%, negative = inhibition) at 10uM |
| --- | --- |
| COc1ccc2c3n(nc2c1)CCN=C3c1cc(Cl)c(N)c(Cl)c1 | -1.63% |
| CCOC(=O)c1c(/N=C/C2C(=O)CC(C)(C)CC2=O)sc(C)c1C | -4.77% |
| Cc1cccc(C(=O)OC(C)CN2C(C)CCCC2C)c1.Cl (centres unmarked) | -21% |
| CC1CCCCC12NC(=O)N(CC(=O)OCC(=O)N(C)C1CCCCC1)C2=O (centres unmarked) | 1.66% |
| CCCCN(C)C(=O)CNC(=O)c1nn(-c2ccc(OC)cc2OC)c(=O)c2ccccc12 | 9.79% |
| O=C(N/N=C/c1ccc(Cl)cc1)C1CC12CCC2 (centres unmarked) | 3.14% |
| NS(=O)(=O)c1ccccc1NC(=S)Nc1ccccc1S(N)(=O)=O | 8.87% |
| COc1ccc(C(=O)CSc2n[nH]c(-c3ccco3)n2)cc1 | 4.1% |
| O=[N+]([O-])c1cccc(-c2ccc3nnc(SCc4ccccn4)n3n2)c1 | -33.5% |
| COc1ccc(S(=O)(=O)N(C)c2ccc(C(=O)NC3CC3)cc2)cc1 | -12.6% |
| FC(F)(F)c1ccccc1NC(=S)NN1CCOCC1 | 14% |
| O=C(COc1ccc([N+](=O)[O-])cc1)Nc1cccc2nsnc12 | 9.19% |
| CCn1c(SCC(=O)Nc2nnc(C)s2)nc2c(c1=O)SC(C)C2 (centres unmarked) | 11.1% |
| COc1ccccc1C(=O)Nc1cccc2c1CCCC2 | 11.9% |
| CCOC(=O)c1ccccc1CN1C(=O)c2ccccc2S1(=O)=O | -11.1% |
| CCn1c(CSc2nnc(-c3ccc4c(c3)OCO4)o2)nc2cc(S(=O)(=O)N(C)C)ccc21 | -24.9% |
| N#CC1(C#N)C2=C(CCCC2)NC(c2ccccc2)C1(C#N)C#N (centres unmarked) | 7.46% |
| O=C(C1=NNC2C(=O)N(c3ccccc3)C(=O)C12)c1nc(Cl)ccc1Cl (centres unmarked) | 0.639% |
| O=C(NC1CCCC1)C(c1ccncc1)N(C(=O)Cc1cccs1)c1ccc(F)cc1 (centres unmarked) | 7.57% |
| CC(C)C(NS(=O)(=O)c1cccc2nsnc12)C(=O)NC1CCCCC1 (centres unmarked) | 5.4% |
| N#CC(c1ccccn1)(c1ncc(C(F)(F)F)cc1Cl)N1CCOCC1 (centres unmarked) | -3.15% |
| COc1cc(C(=O)Nc2ccc(N(C)C)cc2)cc(OC)c1OC | 3.71% |

| Structure (SMILES) | hERG current change (%, negative = inhibition) at 10uM |
| --- | --- |
| N#CCc1ccccc1C(=O)OCC(=O)N(Cc1ccccc1)Cc1ccccc1 | -52.1% |
| CC(=O)Nc1cccc(C(=O)/C=C/c2ccc(/C=C/C(=O)c3cccc(NC(C)=O)c3)cc2)c1 | -9.63% |
| CN(C)c1ccc2c3c(cccc13)C(=O)N(c1ccccc1)C2=O | 15.5% |
| O=C(COc1ncnc2ccccc12)NC1CCS(=O)(=O)C1 (centres unmarked) | 10.6% |
| CC(C)CCSc1cc(NCCO)c([N+](=O)[O-])c2nonc12 | -5.61% |
| C=CCN(C(=O)CNC(=O)c1ccco1)C(C(=O)NC1CCCC1)c1cccs1 (centres unmarked) | 9.37% |
| COc1ccc(S(=O)(=O)NCc2cccnc2)cc1Br | -13.6% |
| N/C(=N\OC(=O)c1ccccc1Cl)c1ccccn1 | 14.5% |
| CC(=O)Oc1ccc([N+](=O)[O-])cc1N1C(=O)c2ccccc2C1=O | 7.88% |
| COc1cccc(C(=O)O/N=C(\N)Cc2ccc(Cl)cc2)c1 | -22% |
| CCOc1ccc(CN2CCCC(CNC(=O)c3ccc(F)cc3)C2)cc1CO (centres unmarked) | -68.1% |
| Cc1cc(C)n(-c2ccc(C(=O)OCC(=O)NC(c3ccccc3)c3ccccc3)cc2)n1 | 43.2% |
| CCC(=O)c1ccc(OCC(=O)OCC(=O)c2c(N)n(C)c(=O)n(C)c2=O)cc1 | 5.93% |
| CCn1cc(C(=O)N2CCN(c3ccccn3)CC2)c(=O)c2cc(S(=O)(=O)N(C)C3CCCCC3)ccc21 | -63.1% |
| C=CCSc1nnc(NC(=O)c2c(CC)noc2C)s1 | 0.691% |
| O=C(CCn1c(=O)oc2cc(Cl)ccc21)Nc1ccc(N2CCOCC2)cc1 | 7.91% |
| CC[C@@]12C(=O)N(c3ccc(C)cc3)C(=O)N1[C@H](c1cccc(C)c1)[C@@H]1C(=O)N(Cc3ccccc3)C(=O)[C@@H]12 | 16% |
| COc1ccccc1-c1nn(Cc2ccccc2)cc1C(=O)N1CCN(c2ncccn2)CC1 | -10.3% |
| CN(C)CC(C)(C)NS(=O)(=O)c1ccc(Cl)cc1 | -2.3% |
| COc1ccc(-c2cc(C(=O)NNC(=O)c3csc(N4CCOCC4)n3)c3ccccc3n2)cc1 | -3.66% |
| COc1cc(/C=N/NC(=O)CCN2CCN(c3ccccc3)CC2)cc(OC)c1OC | -22.2% |
| COc1ccc(-n2c(=O)c3ccccc3c3ccccc3c2=O)c(OC)c1 | 6.64% |

| Structure (SMILES) | hERG current change (%, negative = inhibition) at 10uM |
| --- | --- |
| CCCC(CCC)C(=O)OC1C[C@H]2CC[C@@H](C1)[N+]2(C)C.[Br-] (some centres unmarked) | 2.03% |
| COc1ccccc1N(CC(=O)N1CCCCCC1)S(=O)(=O)c1ccc(C)cc1 | -20.9% |
| CCN(C(=O)c1cc2c(=O)[nH]c3ccc(C)cc3c2s1)c1cccc(C)c1 | -0.235% |
| CCOC(=O)c1nnn(-c2nonc2N)c1CSc1nnc(N)s1 | -6.58% |
| CC1CCCCN1CC(=O)Nc1sc2c(c1C#N)CCC2 (centres unmarked) | 2.38% |
| NC(=O)c1ccsc1NC(=O)CS(=O)(=O)c1ccc(F)cc1 | -68.2% |
| Cc1ccccc1NC(=O)c1ccc(S(=O)(=O)N(C)C)cc1 | -12.6% |
| COc1ccc(Cl)cc1NS(=O)(=O)c1cccc(C(=O)NCCCN2CCCC2=O)c1 | 3.09% |
| CCOC(=O)CCN(c1ccccc1)S(=O)(=O)c1ccc(-c2ccc(=O)[nH]n2)s1 | -29.3% |
| CN(C)CCCNC(=S)N(CCCN(C)C)Cc1cc2cc3c(cc2[nH]c1=O)OCO3 | 10.4% |
| CCCN(C(=O)c1ccccc1Cc1ccccc1)C1CCS(=O)(=O)C1 (centres unmarked) | -0.454% |
| CC(C)CCSc1ncnc2c1oc1nc3c(cc12)COC(C)(C)C3 | -1.75% |
| COc1ccc(S(=O)(=O)NCCc2c(C)nn(C)c2Oc2ccccc2)cc1 | -12.5% |
| C/C=N/NC(=O)CCNC(=O)c1ccccc1 | 14.3% |
| CCOC(=O)Cc1c(C)nc2c(-c3ccccc3)c[nH]n2c1=O | 2.48% |
| Cn1c(SCC(=O)N/N=C/C=C\c2ccccc2[N+](=O)[O-])nc2ccccc21 | 10.4% |
| CC(C)n1nc(C(=O)Oc2cccc(Cl)c2Cl)c2ccccc2c1=O | -11.3% |
| Cn1ccc(C(=O)NC(=S)Nc2ccc([N+](=O)[O-])cc2O)n1 | 8.42% |
| Cc1nnc(SCC(=O)NC2CCCCC2)n1C1CCCCC1 | 5.34% |
| Cc1[nH]c2ccc(C(=O)NC3CCC(C)CC3)cc2c1C (centres unmarked) | 4.27% |
